In the supplement of paper PMC7125110:
± gives the standard error. This sample is rich in variants without activity.

B1: glmS ribozyme (parent)
chain: AUAAAAGCGCCAGAACUACAGAAAUGUAGUUGACGAGGAGGAGGUUUAUCGAAUUUUCGGCGGAUGCCUCCAAA

Assays:
Conditions in all cases: with glucosamine-6-phosphate
[1] = variants of: B1; experiment: self-cleavage kobs at 40 uM GlcN6P; higher = faster cleavage; RNA array
How it was run: (§1)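 kobs was derived by fitting per-tile medians to one- or two-exponential decays after normalising signals to baseline and to non-cleaving reference variants. Those signals came from barcoded ribozyme variants transcribed in situ by E. coli RNA polymerase on sequenced MiSeq chips, followed through a hybridised Cy3 probe at 37 °C and imaged over ~14 h. Glucosamine-6-phosphate (40 μM to 10 mM) in HEPES/KCl/Mg(OAc)2 buffer was flowed in. Weighted Michaelis–Menten fits across concentrations then gave kcat and KM.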

[2] = variants of: B1; experiment: self-cleavage kobs at 10000 uM GlcN6P; higher = faster cleavage; RNA array
How it was run: as §1

[3] = variants of: B1; experiment: self-cleavage kobs at 640 uM GlcN6P; higher = faster cleavage; RNA array
How it was run: as §1

[4] = variants of: B1; experiment: self-cleavage kobs at 160 uM GlcN6P; higher = faster cleavage; RNA array
How it was run: as §1

[5] = variants of: B1; experiment: self-cleavage kobs at 2500 uM GlcN6P; higher = faster cleavage; RNA array
How it was run: as §1

Variant	self-cleavage kobs at 40 uM GlcN6P [1] [s⁻¹]	self-cleavage kobs at 10000 uM GlcN6P [2] [s⁻¹]	self-cleavage kobs at 640 uM GlcN6P [3] [s⁻¹]	self-cleavage kobs at 160 uM GlcN6P [4] [s⁻¹]	self-cleavage kobs at 2500 uM GlcN6P [5] [s⁻¹]
A36G G43A C58A G62C C68G	< 1e-05	< 1e-05			
A36G G44A	< 1e-05	< 1e-05	< 1e-05	< 1e-05	< 1e-05
A36G G51C	< 1e-05	< 1e-05			
A36G G51C G60A	< 1e-05	< 1e-05			
A36G G59A	< 1e-05	< 1e-05	< 1e-05	< 1e-05	< 1e-05
A36G G59C	< 1e-05	< 1e-05	< 1e-05	< 1e-05	< 1e-05
A36G G66A	< 1e-05			< 1e-05	
A36G U46G	< 1e-05	< 1e-05	< 1e-05	< 1e-05	
A36G U49C	< 1e-05	< 1e-05	< 1e-05	< 1e-05	
A36G U54G	< 1e-05				
A36U A39U	< 1e-05	< 1e-05	< 1e-05	< 1e-05	< 1e-05
A36U A42C	< 1e-05		< 1e-05	< 1e-05	< 1e-05
A36U A42G A48G	< 1e-05				< 1e-05
A36U A64C C70U	< 1e-05				
A36U A64U	< 1e-05	< 1e-05	< 1e-05	< 1e-05	< 1e-05
A36U C50U U57C C61U	< 1e-05				
A36U C58G C70A	8.19e-05 ± 2.5e-05	5.18e-05 ± 1.5e-05		0.000111 ± 3.1e-05	4.59e-05 ± 2.3e-05
A36U C61U	< 1e-05				< 1e-05
A36U C67U C70G	7.02e-05 ± 2.8e-05				
A36U G41U	< 1e-05	< 1e-05		< 1e-05	
A36U G43U C50U	< 1e-05				
A36U G43U U57G C68U	< 1e-05	< 1e-05			
A36U G44C U47G	< 1e-05	< 1e-05			
A36U G51U A64G C70U	< 1e-05				
A36U G59C G63A G66U	< 1e-05	< 1e-05			< 1e-05
A36U G62C A64U	< 1e-05				
A36U G62U	< 1e-05	< 1e-05			< 1e-05

Variant	self-cleavage kobs at 40 uM GlcN6P [1] [s⁻¹]	self-cleavage kobs at 10000 uM GlcN6P [2] [s⁻¹]	self-cleavage kobs at 640 uM GlcN6P [3] [s⁻¹]	self-cleavage kobs at 160 uM GlcN6P [4] [s⁻¹]	self-cleavage kobs at 2500 uM GlcN6P [5] [s⁻¹]
A36U G66C	< 1e-05			< 1e-05	
A36U U45A C58A	< 1e-05	< 1e-05			
A36U U45A U46C C68G C71U	< 1e-05	< 1e-05		< 1e-05	< 1e-05
A36U U46A G51A	< 1e-05	< 1e-05			< 1e-05
A36U U47C A64U	< 1e-05				
A36U U49G C50G	< 1e-05				< 1e-05
A36U U54A C67A	< 1e-05	< 1e-05	< 1e-05		< 1e-05
A36U U54C	< 1e-05		< 1e-05	< 1e-05	
A36U U56G	< 1e-05			< 1e-05	
G37A A39U A42G C50U	< 1e-05				
G37A A64C	< 1e-05		< 1e-05		
G37A C50A G59A G66A	< 1e-05				
G37A C50G A53G	< 1e-05				
G37A C50G C58A C67A C71U	4.39e-05 ± 1.4e-05				6.21e-05 ± 1.7e-05
G37A C50U	< 1e-05			< 1e-05	< 1e-05
G37A C50U U65G C68G	< 1e-05			< 1e-05	
G37A C68U C70U	< 1e-05				
G37A G38U G40A	< 1e-05	< 1e-05			< 1e-05
G37A G41C	< 1e-05				
G37A G44A	< 1e-05			< 1e-05	
G37A G59C	< 1e-05	< 1e-05	< 1e-05		< 1e-05
G37A G63U	< 1e-05		< 1e-05	< 1e-05	
G37A U47A	4.6e-05 ± 1.8e-05	0.00229 ± 0.00044	0.000278 ± 4.8e-05	7.83e-05 ± 1.8e-05	0.000752 ± 0.00014
G37A U65G	< 1e-05	0.000191 ± 2.3e-05	4.13e-05 ± 1.5e-05		0.000102 ± 1.2e-05
G37C A39G C50U	< 1e-05				
G37C A39U	< 1e-05			< 1e-05	
G37C A42C	< 1e-05			< 1e-05	

Variant	self-cleavage kobs at 40 uM GlcN6P [1] [s⁻¹]	self-cleavage kobs at 10000 uM GlcN6P [2] [s⁻¹]	self-cleavage kobs at 640 uM GlcN6P [3] [s⁻¹]	self-cleavage kobs at 160 uM GlcN6P [4] [s⁻¹]	self-cleavage kobs at 2500 uM GlcN6P [5] [s⁻¹]
G37C C58U	< 1e-05	< 1e-05			
G37C G40C	< 1e-05	< 1e-05	< 1e-05	< 1e-05	
G37C G40C G51C	< 1e-05	< 1e-05			
G37C G41A	< 1e-05	< 1e-05			
G37C G41U U46C	< 1e-05				
G37C G43U	< 1e-05			< 1e-05	< 1e-05
G37C G44U U46G C71G	< 1e-05				
G37C G59A	< 1e-05				
G37C G63A A64G	< 1e-05		< 1e-05	< 1e-05	< 1e-05
G37C U45A C70G	< 1e-05	< 1e-05			
G37C U46C	< 1e-05				
G37C U47G	< 1e-05				
G37C U47G G51A	< 1e-05		< 1e-05	< 1e-05	
G37C U54A U55C G63C U69G	< 1e-05	< 1e-05			
G37C U55C	< 1e-05				
G37C U56A	< 1e-05				
G37C U56C C58U C67U	< 1e-05				
G37C U56C G66U	< 1e-05	< 1e-05			
G37C U57G C67U	< 1e-05				
G37C U65G U69G	< 1e-05				
G37U A39U G41U	< 1e-05	< 1e-05			< 1e-05
G37U C58U G63A	< 1e-05				
G37U C71U	< 1e-05		< 1e-05		
G37U G38C G41A	< 1e-05		< 1e-05		< 1e-05
G37U G40A	< 1e-05		< 1e-05	< 1e-05	
G37U G40U G60U	< 1e-05	< 1e-05	< 1e-05		
G37U G41U G63U A64G U65C	< 1e-05	< 1e-05	< 1e-05		< 1e-05

Variant	self-cleavage kobs at 40 uM GlcN6P [1] [s⁻¹]	self-cleavage kobs at 10000 uM GlcN6P [2] [s⁻¹]	self-cleavage kobs at 640 uM GlcN6P [3] [s⁻¹]	self-cleavage kobs at 160 uM GlcN6P [4] [s⁻¹]	self-cleavage kobs at 2500 uM GlcN6P [5] [s⁻¹]
G37U G44A U46C G63A	< 1e-05				
G37U G44U	< 1e-05	< 1e-05	< 1e-05	< 1e-05	
G37U G51U	< 1e-05				
G37U G59C	< 1e-05	< 1e-05	< 1e-05		
G37U G60A	< 1e-05		< 1e-05		
G37U U49G	< 1e-05	< 1e-05		< 1e-05	
G37U U55A	< 1e-05		< 1e-05	< 1e-05	< 1e-05
G38A A42C C67A	< 1e-05				
G38A A42U	< 1e-05				
G38A A42U G44U A48G	< 1e-05				
G38A A48U U56C	< 1e-05	< 1e-05			
G38A A53G	< 1e-05		< 1e-05		
G38A C58U U69C	< 1e-05	< 1e-05			
G38A C61G	< 1e-05				
G38A C67G	< 1e-05	< 1e-05		< 1e-05	
G38A G40A	< 1e-05	< 1e-05	< 1e-05	< 1e-05	< 1e-05
G38A G41U G63U	< 1e-05		< 1e-05	< 1e-05	< 1e-05
G38A G43C	< 1e-05	< 1e-05	< 1e-05	< 1e-05	
G38A G43U	< 1e-05	< 1e-05	< 1e-05	< 1e-05	
G38A G59A U69A	< 1e-05	< 1e-05			< 1e-05
G38A U45C A52G	< 1e-05				
G38A U46A	< 1e-05	< 1e-05	< 1e-05	< 1e-05	< 1e-05
G38A U47A	< 1e-05	< 1e-05		< 1e-05	< 1e-05
G38A U65G	< 1e-05	< 1e-05	< 1e-05	< 1e-05	
